Test results reported in the supplement of paper PMC5895741.

B1: MS2 coat protein; the commonest letter at each place (parent)
chain: MASNFTQFVLVDNGGTGDVTVAPSNFANGVAEWISSNSRSQAYKVTCSVRQSSAQNRKYTIKVEVPKVATQTVGGVELPVAAWRSYLNMELTIPIFATNSDCELIVKAMQGLLKDGNPIPSAIAANSGIY
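Also: counts from Illumina MiSeq reads, cDNA of packaged RNA versus plasmid DNA taken before selection, each replicate independent from library construction onward, expression induced with 0.1% arabinose.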

Variants of: B1
Experiment: apparent fitness score (VLP assembly selection enrichment vs plasmid library) (log10 ratio); higher = better expression / assembly into well-formed VLPs
Description: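 SyMAPS: NNK codon saturation mutagenesis of every codon of the MS2 bacteriophage coat protein (EMPIRIC cloning), expressed overnight in E. coli DH10B at 37 °C. Assembled VLPs were selected by ammonium sulfate precipitation plus FPLC size-exclusion chromatography, and the encapsidated RNA was sequenced. Apparent fitness score = log10 of the mean over 3 biological replicates of (percent abundance in the VLP library / percent abundance in the plasmid library). Variants absent after selection were set to 0.0001, i.e. -4.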
For MASNFTQFVLVDNGGTGDVTVAPSNFANGVAEWISSNSLSQAYKVTCSVRQSSAQNRKYTIKVEVPKVATQTVGGVELPVAAWRSYLNMELTIPIFATNSDCELIVKAMQGLLKDGNPIPSAIAANSGIY [R39L], the “apparent fitness score (log10)” value was -1.19. With MASNFTQFVLVDNGGTGDVTVAPSNFANGVAEWISSNSKSQAYKVTCSVRQSSAQNRKYTIKVEVPKVATQTVGGVELPVAAWRSYLNMELTIPIFATNSDCELIVKAMQGLLKDGNPIPSAIAANSGIY [R39K] the “apparent fitness score (log10)” value was -0.639. In the case of MASNFTQFVLVDNGGTGDVTVAPSNFANGVAEWISSNSPSQAYKVTCSVRQSSAQNRKYTIKVEVPKVATQTVGGVELPVAAWRSYLNMELTIPIFATNSDCELIVKAMQGLLKDGNPIPSAIAANSGIY [R39P], the “apparent fitness score (log10)” value is reported as -1.3. For MASNFTQFVLVDNGGTGDVTVAPSNFANGVAEWISSNSDSQAYKVTCSVRQSSAQNRKYTIKVEVPKVATQTVGGVELPVAAWRSYLNMELTIPIFATNSDCELIVKAMQGLLKDGNPIPSAIAANSGIY [R39D], the “apparent fitness score (log10)” value was < -4. For MASNFTQFVLVDNGGTGDVTVAPSNFANGVAEWISSNSISQAYKVTCSVRQSSAQNRKYTIKVEVPKVATQTVGGVELPVAAWRSYLNMELTIPIFATNSDCELIVKAMQGLLKDGNPIPSAIAANSGIY [R39I], the “apparent fitness score (log10)” value was < -4. For MASNFTQFVLVDNGGTGDVTVAPSNFANGVAEWISSNSSSQAYKVTCSVRQSSAQNRKYTIKVEVPKVATQTVGGVELPVAAWRSYLNMELTIPIFATNSDCELIVKAMQGLLKDGNPIPSAIAANSGIY [R39S], the “apparent fitness score (log10)” value was < -4. In the case of MASNFTQFVLVDNGGTGDVTVAPSNFANGVAEWISSNSESQAYKVTCSVRQSSAQNRKYTIKVEVPKVATQTVGGVELPVAAWRSYLNMELTIPIFATNSDCELIVKAMQGLLKDGNPIPSAIAANSGIY [R39E], the “apparent fitness score (log10)” value is reported as -1.2. With MASNFTQFVLVDNGGTGDVTVAPSNFANGVAEWISSNSHSQAYKVTCSVRQSSAQNRKYTIKVEVPKVATQTVGGVELPVAAWRSYLNMELTIPIFATNSDCELIVKAMQGLLKDGNPIPSAIAANSGIY [R39H] the “apparent fitness score (log10)” value was 0.651. In the case of MASNFTQFVLVDNGGTGDVTVAPSNFANGVAEWISSNSMSQAYKVTCSVRQSSAQNRKYTIKVEVPKVATQTVGGVELPVAAWRSYLNMELTIPIFATNSDCELIVKAMQGLLKDGNPIPSAIAANSGIY [R39M], the “apparent fitness score (log10)” value is reported as < -4. In the case of MASNFTQFVLVDNGGTGDVTVAPSNFANGVAEWISSNSFSQAYKVTCSVRQSSAQNRKYTIKVEVPKVATQTVGGVELPVAAWRSYLNMELTIPIFATNSDCELIVKAMQGLLKDGNPIPSAIAANSGIY [R39F], the “apparent fitness score (log10)” value is reported as < -4. With MASNFTQFVLVDNGGTGDVTVAPSNFANGVAEWISSNSGSQAYKVTCSVRQSSAQNRKYTIKVEVPKVATQTVGGVELPVAAWRSYLNMELTIPIFATNSDCELIVKAMQGLLKDGNPIPSAIAANSGIY [R39G] the “apparent fitness score (log10)” value was -0.766. With MASNFTQFVLVDNGGTGDVTVAPSNFANGVAEWISSNSCSQAYKVTCSVRQSSAQNRKYTIKVEVPKVATQTVGGVELPVAAWRSYLNMELTIPIFATNSDCELIVKAMQGLLKDGNPIPSAIAANSGIY [R39C] the “apparent fitness score (log10)” value was 0.716. With MASNFTQFVLVDNGGTGDVTVAPSNFANGVAEWISSNSNSQAYKVTCSVRQSSAQNRKYTIKVEVPKVATQTVGGVELPVAAWRSYLNMELTIPIFATNSDCELIVKAMQGLLKDGNPIPSAIAANSGIY [R39N] the “apparent fitness score (log10)” value was < -4. With MASNFTQFVLVDNGGTGDVTVAPSNFANGVAEWISSNSASQAYKVTCSVRQSSAQNRKYTIKVEVPKVATQTVGGVELPVAAWRSYLNMELTIPIFATNSDCELIVKAMQGLLKDGNPIPSAIAANSGIY [R39A] the “apparent fitness score (log10)” value was < -4. For MASNFTQFVLVDNGGTGDVTVAPSNFANGVAEWISSNSQSQAYKVTCSVRQSSAQNRKYTIKVEVPKVATQTVGGVELPVAAWRSYLNMELTIPIFATNSDCELIVKAMQGLLKDGNPIPSAIAANSGIY [R39Q], the “apparent fitness score (log10)” value was < -4. For MASNFTQFVLVDNGGTGDVTVAPSNFANGVAEWISSNPRSQAYKVTCSVRQSSAQNRKYTIKVEVPKVATQTVGGVELPVAAWRSYLNMELTIPIFATNSDCELIVKAMQGLLKDGNPIPSAIAANSGIY [S38P], the “apparent fitness score (log10)” value was 0.182. For MASNFTQFVLVDNGGTGDVTVAPSNFANGVAEWISSNYRSQAYKVTCSVRQSSAQNRKYTIKVEVPKVATQTVGGVELPVAAWRSYLNMELTIPIFATNSDCELIVKAMQGLLKDGNPIPSAIAANSGIY [S38Y], the “apparent fitness score (log10)” value was < -4. In the case of MASNFTQFVLVDNGGTGDVTVAPSNFANGVAEWISSNVRSQAYKVTCSVRQSSAQNRKYTIKVEVPKVATQTVGGVELPVAAWRSYLNMELTIPIFATNSDCELIVKAMQGLLKDGNPIPSAIAANSGIY [S38V], the “apparent fitness score (log10)” value is reported as -0.88. In the case of MASNFTQFVLVDNGGTGDVTVAPSNFANGVAEWISSNRRSQAYKVTCSVRQSSAQNRKYTIKVEVPKVATQTVGGVELPVAAWRSYLNMELTIPIFATNSDCELIVKAMQGLLKDGNPIPSAIAANSGIY [S38R], the “apparent fitness score (log10)” value is reported as -0.625. With MASNFTQFVLVDNGGTGDVTVAPSNFANGVAEWISSNTRSQAYKVTCSVRQSSAQNRKYTIKVEVPKVATQTVGGVELPVAAWRSYLNMELTIPIFATNSDCELIVKAMQGLLKDGNPIPSAIAANSGIY [S38T] the “apparent fitness score (log10)” value was 0.233. For MASNFTQFVLVDNGGTGDVTVAPSNFANGVAEWISSNQRSQAYKVTCSVRQSSAQNRKYTIKVEVPKVATQTVGGVELPVAAWRSYLNMELTIPIFATNSDCELIVKAMQGLLKDGNPIPSAIAANSGIY [S38Q], the “apparent fitness score (log10)” value was -1.28. With MASNFTQFVLVDNGGTGDVTVAPSNFANGVAEWISSNWRSQAYKVTCSVRQSSAQNRKYTIKVEVPKVATQTVGGVELPVAAWRSYLNMELTIPIFATNSDCELIVKAMQGLLKDGNPIPSAIAANSGIY [S38W] the “apparent fitness score (log10)” value was -0.331.
